{"source": "the supplement of paper PMC8728848", "assay_in_all_cases": "glycan array binding signal (z-score within array); higher = stronger binding", "details_in_all_cases": "glycan notation: IUPAC condensed, linker removed", "key": {"[1]": {"target": "Neu5Ac(a2-3)Gal(b1-4)GlcNAc(b1-3)Gal(b1-4)GlcNAc(b1-3)Gal(b1-4)GlcNAc", "summary_of_the_method": "(§1)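 From the Consortium for Functional Glycomics database, 3228 arrays were curated, keeping only those whose protein sequence was available. Binding is given as a within-array Z-score averaged across arrays sharing a protein sequence and across linkers. Negative Z-scores can be read as non-binding.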"}, "[2]": {"target": "Neu5Ac(a2-3)Gal(b1-4)GlcNAc(b1-3)Gal(b1-4)GlcNAc(b1-3)Gal(b1-4)GlcNAc(b1-2)Man(a1-3)[Neu5Ac(a2-3)Gal(b1-4)GlcNAc(b1-3)Gal(b1-4)GlcNAc(b1-3)Gal(b1-4)GlcNAc(b1-2)Man(a1-6)]GalNAc", "summary_of_the_method": "as §1"}, "[3]": {"target": "Neu5Ac(a2-3)Gal(b1-4)GlcNAc(b1-3)Gal(b1-4)GlcNAc(b1-3)GalNAc", "summary_of_the_method": "as §1"}, "[4]": {"target": "Neu5Ac(a2-3)Gal(b1-4)GlcNAc(b1-3)Gal(b1-4)GlcNAc(b1-3)[Neu5Ac(a2-3)Gal(b1-4)GlcNAc(b1-3)Gal(b1-4)GlcNAc(b1-6)]GalNAc", "summary_of_the_method": "as §1"}, "[5]": {"target": "Neu5Ac(a2-3)Gal(b1-4)GlcNAc(b1-3)Gal(b1-4)GlcNAc(b1-6)[Gal(b1-3)]GalNAc", "summary_of_the_method": "as §1"}, "[6]": {"target": "Neu5Ac(a2-3)Gal(b1-4)GlcNAc(b1-3)Gal(b1-4)[Fuc(a1-3)]GlcNAc", "summary_of_the_method": "as §1"}, "[7]": {"target": "Neu5Ac(a2-3)Gal(b1-4)GlcNAc(b1-3)GalNAc", "summary_of_the_method": "as §1"}, "[8]": {"target": "Neu5Ac(a2-3)Gal(b1-4)GlcNAc(b1-3)[Neu5Ac(a2-3)Gal(b1-4)GlcNAc(b1-6)]GalNAc", "summary_of_the_method": "as §1"}, "[9]": {"target": "Neu5Ac(a2-3)Gal(b1-4)GlcNAc(b1-6)GalNAc", "summary_of_the_method": "as §1"}, "[10]": {"target": "Neu5Ac(a2-3)Gal(b1-4)GlcNAc(b1-6)[Gal(b1-3)]GalNAc", "summary_of_the_method": "as §1"}, "[11]": {"target": "Neu5Ac(a2-3)Gal(b1-4)GlcNAc(b1-6)[Neu5Ac(a2-3)Gal(b1-3)]GalNAc", "summary_of_the_method": "as §1"}, "[12]": {"target": "Neu5Ac(a2-3)Gal(b1-4)GlcNAc6S", "summary_of_the_method": "as §1"}, "[13]": {"target": "Neu5Ac(a2-3)Gal(b1-4)[Fuc(a1-3)]GlcNAc", "summary_of_the_method": "as §1"}, "[14]": {"target": "Neu5Ac(a2-3)Gal(b1-4)[Fuc(a1-3)]GlcNAc(b1-2)Man", "summary_of_the_method": "as §1"}, "[15]": {"target": "Neu5Ac(a2-3)Gal(b1-4)[Fuc(a1-3)]GlcNAc(b1-3)Gal", "summary_of_the_method": "as §1"}, "[16]": {"target": "Neu5Ac(a2-3)Gal(b1-4)[Fuc(a1-3)]GlcNAc(b1-3)Gal(b1-4)GlcNAc", "summary_of_the_method": "as §1"}, "[17]": {"target": "Neu5Ac(a2-3)Gal(b1-4)[Fuc(a1-3)]GlcNAc(b1-3)Gal(b1-4)[Fuc(a1-3)]GlcNAc(b1-3)Gal(b1-4)[Fuc(a1-3)]GlcNAc", "summary_of_the_method": "as §1"}, "[18]": {"target": "Neu5Ac(a2-3)Gal(b1-4)[Fuc(a1-3)]GlcNAc(b1-3)GalNAc", "summary_of_the_method": "as §1"}, "[19]": {"target": "Neu5Ac(a2-3)Gal(b1-4)[Fuc(a1-3)]GlcNAc(b1-6)[Gal(b1-3)]GalNAc", "summary_of_the_method": "as §1"}, "[20]": {"target": "Neu5Ac(a2-3)Gal(b1-4)[Fuc(a1-3)]GlcNAc(b1-6)[Neu5Ac(a2-3)Gal(b1-3)]GalNAc", "summary_of_the_method": "as §1"}, "[21]": {"target": "Neu5Ac(a2-3)Gal(b1-4)[Fuc(a1-3)]GlcNAc6S", "summary_of_the_method": "as §1"}, "[22]": {"target": "Neu5Ac(a2-3)Gal6S(b1-4)GlcNAc", "summary_of_the_method": "as §1"}, "[23]": {"target": "Neu5Ac(a2-3)Gal6S(b1-4)[Fuc(a1-3)]GlcNAc", "summary_of_the_method": "as §1"}, "Neu5Ac(a2-3)GalNAc": {"target": "Neu5Ac(a2-3)GalNAc", "summary_of_the_method": "as §1"}, "[24]": {"target": "Neu5Ac(a2-3)GalNAc(b1-4)GlcNAc", "summary_of_the_method": "as §1"}, "[25]": {"target": "Neu5Ac(a2-3)[GalNAc(b1-4)]Gal(b1-4)Glc", "summary_of_the_method": "as §1"}, "[26]": {"target": "Neu5Ac(a2-3)[GalNAc(b1-4)]Gal(b1-4)GlcNAc", "summary_of_the_method": "as §1"}, "[27]": {"target": "Neu5Ac(a2-3)[GalNAc(b1-4)]Gal(b1-4)GlcNAc(b1-3)GalNAc", "summary_of_the_method": "as §1"}, "[28]": {"target": "Neu5Ac(a2-3)[Neu5Ac(a2-6)]GalNAc", "summary_of_the_method": "as §1"}, "Neu5Ac(a2-6)Gal": {"target": "Neu5Ac(a2-6)Gal", "summary_of_the_method": "as §1"}, "[29]": {"target": "Neu5Ac(a2-6)Gal(b1-3)GlcNAc(b1-3)[Gal(b1-4)GlcNAc(b1-6)]Gal(b1-4)Glc", "summary_of_the_method": "as §1"}, "Neu5Ac(a2-6)Gal(b1-4)Glc": {"target": "Neu5Ac(a2-6)Gal(b1-4)Glc", "summary_of_the_method": "as §1"}, "[30]": {"target": "Neu5Ac(a2-6)Gal(b1-4)GlcNAc", "summary_of_the_method": "as §1"}, "[31]": {"target": "Neu5Ac(a2-6)Gal(b1-4)GlcNAc(b1-2)Man", "summary_of_the_method": "as §1"}, "[32]": {"target": "Neu5Ac(a2-6)Gal(b1-4)GlcNAc(b1-2)Man(a1-3)Man(b1-4)GlcNAc(b1-4)GlcNAc", "summary_of_the_method": "as §1"}, "[33]": {"target": "Neu5Ac(a2-6)Gal(b1-4)GlcNAc(b1-2)Man(a1-3)[Gal(b1-4)GlcNAc(b1-2)Man(a1-6)]Man(b1-4)GlcNAc(b1-4)GlcNAc", "summary_of_the_method": "as §1"}, "[34]": {"target": "Neu5Ac(a2-6)Gal(b1-4)GlcNAc(b1-2)Man(a1-3)[GlcNAc(b1-2)Man(a1-6)]Man(b1-4)GlcNAc(b1-4)GlcNAc", "summary_of_the_method": "as §1"}, "[35]": {"target": "Neu5Ac(a2-6)Gal(b1-4)GlcNAc(b1-2)Man(a1-3)[GlcNAc(b1-4)][Neu5Ac(a2-6)Gal(b1-4)GlcNAc(b1-2)Man(a1-6)]Man(b1-4)GlcNAc(b1-4)GlcNAc", "summary_of_the_method": "as §1"}}, "note": "Some of the results follow."}
{"binder": "Clone730PsrP (Streptococcus pneumoniae) (protein) MDHHHHHHHHHHASENLYFQGAMVVGSQTAAATEATAKKVEEDRKKPASDYVASVTNVNLQSYAKRRKRSVDSIEQLLASIKNAAVFSGNTIVNGAPAINASLNIAKSETKVYTGEGVDSVYRVPIYYKLKVTNDGSKLTFTYTVTYVNPKTNDLGNISSMRPGYSIYNSGTSTQTMLTLGSDLGKPSGVKNYITDKNGRQVLSYNTSTMTTQGSGYTWGNGAQMNGFFAKKGYGLTSSWTVPITGTDTSFTFTPYAARTDRIGINYFNGGGKVVESSTT", "values": [{"measurement": "glycan array binding signal (z-score)", "setting": "[1]", "value": -0.452}, {"measurement": "glycan array binding signal (z-score)", "setting": "[2]", "value": 1.38}, {"measurement": "glycan array binding signal (z-score)", "setting": "[3]", "value": -0.327}, {"measurement": "glycan array binding signal (z-score)", "setting": "[4]", "value": -0.395}, {"measurement": "glycan array binding signal (z-score)", "setting": "[5]", "value": -0.073}, {"measurement": "glycan array binding signal (z-score)", "setting": "[6]", "value": -0.015}, {"measurement": "glycan array binding signal (z-score)", "setting": "[7]", "value": -0.294}, {"measurement": "glycan array binding signal (z-score)", "setting": "[8]", "value": -0.146}, {"measurement": "glycan array binding signal (z-score)", "setting": "[9]", "value": -0.233}, {"measurement": "glycan array binding signal (z-score)", "setting": "[10]", "value": 0.026}, {"measurement": "glycan array binding signal (z-score)", "setting": "[11]", "value": -0.222}, {"measurement": "glycan array binding signal (z-score)", "setting": "[12]", "value": -0.15}, {"measurement": "glycan array binding signal (z-score)", "setting": "[13]", "value": -0.465}, {"measurement": "glycan array binding signal (z-score)", "setting": "[14]", "value": -0.152}, {"measurement": "glycan array binding signal (z-score)", "setting": "[15]", "value": -0.51}, {"measurement": "glycan array binding signal (z-score)", "setting": "[16]", "value": -0.001}, {"measurement": "glycan array binding signal (z-score)", "setting": "[17]", "value": -0.46}, {"measurement": "glycan array binding signal (z-score)", "setting": "[18]", "value": 0.409}, {"measurement": "glycan array binding signal (z-score)", "setting": "[19]", "value": -0.435}, {"measurement": "glycan array binding signal (z-score)", "setting": "[20]", "value": 0.717}, {"measurement": "glycan array binding signal (z-score)", "setting": "[21]", "value": 1.98}, {"measurement": "glycan array binding signal (z-score)", "setting": "[22]", "value": -0.513}, {"measurement": "glycan array binding signal (z-score)", "setting": "[23]", "value": -0.592}, {"measurement": "glycan array binding signal (z-score)", "setting": "Neu5Ac(a2-3)GalNAc", "value": 0.52}, {"measurement": "glycan array binding signal (z-score)", "setting": "[24]", "value": -0.089}, {"measurement": "glycan array binding signal (z-score)", "setting": "[25]", "value": -0.647}, {"measurement": "glycan array binding signal (z-score)", "setting": "[26]", "value": -0.603}, {"measurement": "glycan array binding signal (z-score)", "setting": "[27]", "value": -0.53}, {"measurement": "glycan array binding signal (z-score)", "setting": "[28]", "value": 0.717}, {"measurement": "glycan array binding signal (z-score)", "setting": "Neu5Ac(a2-6)Gal", "value": -0.462}, {"measurement": "glycan array binding signal (z-score)", "setting": "[29]", "value": -0.471}, {"measurement": "glycan array binding signal (z-score)", "setting": "Neu5Ac(a2-6)Gal(b1-4)Glc", "value": 0.156}, {"measurement": "glycan array binding signal (z-score)", "setting": "[30]", "value": -0.2}, {"measurement": "glycan array binding signal (z-score)", "setting": "[31]", "value": 0.242}, {"measurement": "glycan array binding signal (z-score)", "setting": "[32]", "value": -0.343}, {"measurement": "glycan array binding signal (z-score)", "setting": "[33]", "value": -0.244}, {"measurement": "glycan array binding signal (z-score)", "setting": "[34]", "value": -0.597}, {"measurement": "glycan array binding signal (z-score)", "setting": "[35]", "value": -0.568}]}
